Measured values from PubChem BioAssay AID488969 (Vanderbilt High Throughput Screening Facility, 2010).
Over roughly 110,000 compounds, “z-score” has its median near -0.1; the highest 2% begin near 2. The list shows a part of the results.

target: Metabotropic glutamate receptor 8 (Rattus norvegicus) (UniProt P70579); test: rat mGluR8 modulators via GIRK flux, primary screen, cell-based, thallium flux, HTS (AID 488969); details: HEK293 rat mGluR8, GIRK (G protein-gated inwardly rectifying potassium channel) thallium flux, FluoZin2; at 10 µM; stronger effect = higher value; submaximal glutamate (EC20) added with thallium
Chain of UniProt P70579 (P70579 whole entry, looked up): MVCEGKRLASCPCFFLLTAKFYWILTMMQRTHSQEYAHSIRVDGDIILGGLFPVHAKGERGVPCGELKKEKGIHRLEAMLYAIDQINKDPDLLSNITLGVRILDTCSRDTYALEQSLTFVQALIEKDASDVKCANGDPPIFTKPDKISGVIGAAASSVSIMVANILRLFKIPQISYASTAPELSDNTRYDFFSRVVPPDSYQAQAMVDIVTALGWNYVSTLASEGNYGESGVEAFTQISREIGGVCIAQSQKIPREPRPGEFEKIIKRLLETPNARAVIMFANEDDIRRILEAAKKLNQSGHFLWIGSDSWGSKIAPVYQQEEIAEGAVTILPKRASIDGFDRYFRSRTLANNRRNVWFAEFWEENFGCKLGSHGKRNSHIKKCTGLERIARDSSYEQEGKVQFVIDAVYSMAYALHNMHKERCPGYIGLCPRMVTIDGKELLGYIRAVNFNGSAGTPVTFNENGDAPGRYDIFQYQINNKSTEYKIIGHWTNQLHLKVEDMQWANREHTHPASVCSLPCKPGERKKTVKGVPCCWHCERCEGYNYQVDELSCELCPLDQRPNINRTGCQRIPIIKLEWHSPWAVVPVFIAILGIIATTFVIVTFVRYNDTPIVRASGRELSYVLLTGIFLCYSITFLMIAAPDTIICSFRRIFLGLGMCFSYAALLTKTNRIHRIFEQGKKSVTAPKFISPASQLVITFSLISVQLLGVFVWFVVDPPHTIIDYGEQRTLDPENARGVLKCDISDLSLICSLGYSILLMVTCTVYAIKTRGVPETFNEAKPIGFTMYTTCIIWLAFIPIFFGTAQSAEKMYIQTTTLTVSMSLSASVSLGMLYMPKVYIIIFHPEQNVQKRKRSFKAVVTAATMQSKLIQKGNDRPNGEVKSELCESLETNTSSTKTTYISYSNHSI

How did the z-score turn out when `O=C(NCCc1ccc2c(c1)OCCO2)c1ccc(F)cc1` was run?
Its z-score is -0.24.

How did the z-score turn out when `O=C(c1cc(-c2cccs2)nc2ccccc12)N1CCN(S(=O)(=O)c2ccccc2)CC1` was run?
Its z-score is -0.231.

Which z-score does the source give for `O=C(Cn1c(C(F)(F)F)nc2ccccc21)NCCCN1CCOCC1` here?
Its z-score is -0.217.

`Cc1c(N=Cc2ccncc2)c(=O)n(-c2ccccc2)n1C` was tested. Which z-score did it give?
Its z-score is -0.041.

Which z-score does the source give for `CCOc1ccc(-c2nnn(CC(=O)NCc3ccc(OC)cc3)n2)cc1OCC` here?
The z-score was -0.504.

With `CCN(C(=O)c1ccc2c(OC)n(CC)nc2c1)c1ccc(OC)cc1` as the compound, how does the z-score read?
Its z-score is 0.214.

`CCn1c(Cc2ccccc2)nnc1SCc1cccc(C(=O)O)c1` was tested. Which z-score did it give?
Its z-score is -0.452.

With `Cc1cc(C)c(-c2c(O)c3c(n(C)c2=O)CC(C)(C)CC3=O)c(C)c1` as the compound, how does the z-score read?
Its z-score is 0.144.

`O=C(Nc1ccc(Cl)c(Cl)c1)c1ccncc1` was tested. Which z-score did it give?
The z-score was -0.0419.

How did the z-score turn out when `Cc1[nH]nc(SCC(=O)Nc2ccc(C#N)cc2)c1[N+](=O)[O-]` was run?
Its z-score is -0.386.

How did the z-score turn out when `Cc1c(C(=O)NC(C)C)oc2c1-c1[nH]ncc1CC2` was run?
The z-score was 0.204.

Which z-score does the source give for `Cc1cccc(Nc2ncc3c(n2)CC(C)CC3=O)c1` (centres undefined) here?
Its z-score is 0.341.

With `CCCCCOC(=O)C1=C(C)Nc2nnnn2C1c1ccccc1Cl` (centres undefined) as the compound, how does the z-score read?
The z-score was -0.123.

Which z-score does the source give for `Cc1ccc(C)c(N2C(=O)CC(N3CCN(Cc4ccc5c(c4)OCO5)CC3)C2=O)c1` (centres undefined) here?
The z-score was -0.278.

Which z-score does the source give for `COc1ccc(CCNC(=O)C2=COCCO2)cc1` here?
Its z-score is -0.23.

Which z-score does the source give for `CC(=O)Oc1ccc(-c2cccc(C(=O)OCC(=O)N(C)c3ccccc3)c2)cc1` here?
Its z-score is 0.419.

`COc1ccc(C2N(c3ccccn3)C(=O)C3CCCN32)c(OC)c1` (centres undefined) was tested. Which z-score did it give?
Its z-score is -0.103.

Which z-score does the source give for `COc1cc2[nH]c(=O)n(CCC(=O)N3CC=C(c4ccccc4)CC3)c(=O)c2cc1OC` here?
The z-score was -0.0927.

For `Cc1[nH]c2ccccc2c1SCCN`, which z-score is on record?
The z-score was -0.0524.

`Oc1ccc(Br)cc1-c1cc(-c2ccco2)[nH]n1` was tested. Which z-score did it give?
Its z-score is -0.7.

How did the z-score turn out when `CC(=O)NCCC(=O)Nc1ccc(F)cc1C` was run?
Its z-score is 0.219.

With `Cc1ccc(CCN2CC(C(=O)NCCN3CCCCCC3)CC2=O)cc1` (centres undefined) as the compound, how does the z-score read?
The z-score was 0.736.

`O=c1[nH][nH]c(-c2ccccc2)c1C=Nc1cccc(Cl)c1` was tested. Which z-score did it give?
Its z-score is -0.34.

Which z-score does the source give for `COc1ccc(-c2cc(C(F)F)n3ncc(C(=O)N4CCSCC4)c3n2)cc1` here?
Its z-score is -0.659.

`O=C1NC(=S)N(c2cccc(Cl)c2)C12CCCCC2` was tested. Which z-score did it give?
The z-score was 1.65.

Which z-score does the source give for `Cc1ccccc1OCC(=O)N(Cc1ccc(N(C)C)cc1)C1CCS(=O)(=O)C1` (centres undefined) here?
Its z-score is -0.674.

With `CCCCc1nc2n[nH]c(N)c2c2c1CCCC2` as the compound, how does the z-score read?
The z-score was -1.12.

For `CC(=O)Nc1ccc(NC(=O)COC(=O)c2c3c(nc4ccccc24)CCN(Cc2ccccc2)C3)cc1`, which z-score is on record?
Its z-score is -0.0467.

How did the z-score turn out when `COc1cccc(-c2noc(CCC(=O)NC3CCCCC3)n2)c1` was run?
The z-score was -0.132.

For `Cn1c(=O)c2[nH]c(-c3ccccc3O)nc2n(C)c1=O`, which z-score is on record?
Its z-score is -0.0265.

Which z-score does the source give for `CCCC(=O)Nc1ccccc1-c1nnn(CC(=O)Nc2ccc(OC)cc2)n1` here?
The z-score was -1.18.

Which z-score does the source give for `CCCSc1nnc(NC(=O)c2nc(SC)ncc2Cl)s1` here?
Its z-score is 0.267.

`O=C(CN1CCN(C(=O)c2ccco2)CC1)Nc1ccccc1-c1ccccc1` was tested. Which z-score did it give?
The z-score was 0.108.

For `CC(C)[C@@H]1N[C@]2(C(=O)Nc3ccccc32)[C@@H]2C(=O)N(c3cccc(C(F)(F)F)c3)C(=O)[C@@H]21`, which z-score is on record?
The z-score was -0.346.

With `O=C(CSc1nnc(-c2ccccc2)o1)N1CCOCC1` as the compound, how does the z-score read?
The z-score was -0.473.

With `Cc1cccc(NC(c2ccc(O)cc2)c2ccc3ccc(C)nc3c2O)n1` (centres undefined) as the compound, how does the z-score read?
Its z-score is -0.308.

Which z-score does the source give for `Cc1ccn2c(NC(=O)c3ccco3)c(-c3ccccc3)nc2c1` here?
Its z-score is 0.468.

With `NCCCC(=O)N1c2ccccc2Sc2ccccc21` as the compound, how does the z-score read?
The z-score was 0.267.

`O=C1C2C3C=CC(C4CC34)C2C(=O)N1/N=C/c1ccc(-c2cccc([N+](=O)[O-])c2)o1` (centres undefined) was tested. Which z-score did it give?
The z-score was -0.396.

How did the z-score turn out when `Cc1ccc(C(=O)c2cc([N+](=O)[O-])ccc2N2CCCCC2)cc1` was run?
Its z-score is -0.438.

Which z-score does the source give for `O=C(N/N=C/c1ccncc1)c1ccccc1` here?
The z-score was -0.153.

Which z-score does the source give for `Cn1c(SCC(=O)NCc2ccc3c(c2)OCO3)nnc1C1COc2ccccc2O1` (centres undefined) here?
Its z-score is -0.0878.

How did the z-score turn out when `Cc1ccc(OC(=O)NC2CCS(=O)(=O)C2)cc1C` (centres undefined) was run?
Its z-score is 0.186.

Which z-score does the source give for `Cc1ccc(CNC(=O)CN(C)S(=O)(=O)c2cccc3cccnc23)cc1` here?
Its z-score is -0.061.

How did the z-score turn out when `O=C(NC(=S)N1CCN(c2ccc([N+](=O)[O-])cc2Cl)CC1)c1ccco1` was run?
The z-score was 1.05.

Which z-score does the source give for `COc1ccc(-n2c(SCC(=O)c3c(N)n(C)c(=O)n(C)c3=O)nc3ccccc32)cc1` here?
Its z-score is 0.304.

`COc1cccc(NC(=O)[C@@H]2CCCN2C(=O)C2CCN(S(=O)(=O)c3ccc(C)cc3)CC2)c1` was tested. Which z-score did it give?
The z-score was -0.205.

`O=C(/C=N/O)NCCN1CCCCC1` was tested. Which z-score did it give?
Its z-score is 0.135.

`O=C1NC(c2ccccc2)=NC1(Nc1ccccn1)C(F)(F)F` (centres undefined) was tested. Which z-score did it give?
The z-score was 0.148.

Which z-score does the source give for `C=CCNC(=O)c1ccccc1NC(=O)c1ccccc1C` here?
Its z-score is 0.287.

For `CSC1=C(C#N)C(c2ccc(C)s2)CC(=O)N1` (centres undefined), which z-score is on record?
The z-score was -0.481.

How did the z-score turn out when `O=C(NC1(C(F)(F)F)NC(=O)N(Cc2ccco2)C1=O)c1cccs1` (centres undefined) was run?
The z-score was -0.323.

With `Nc1ncnc2c1ncn2CCNCCc1ccccc1` as the compound, how does the z-score read?
Its z-score is -0.981.

How did the z-score turn out when `CC(=O)Nc1ccc(NS(=O)(=O)c2cn(C)c(=O)n(C)c2=O)cc1` was run?
Its z-score is -0.124.

For `CC(C)[C@H](NS(=O)(=O)c1cccc(Cl)c1)C(=O)OCC(=O)N1CCN(c2ccccc2)CC1`, which z-score is on record?
Its z-score is -0.62.

With `COc1cccc(N2C(=O)C3C(C2=O)C2C=CC3C23CC3)c1` (centres undefined) as the compound, how does the z-score read?
The z-score was 0.0195.

For `Cc1ccc(OC(=O)COc2ccccc2)c(-n2nc3ccccc3n2)c1`, which z-score is on record?
Its z-score is -0.00045.

How did the z-score turn out when `CCOc1ccc(Nc2nc3cc(S(=O)(=O)N(CC)CC)ccc3o2)cc1` was run?
The z-score was 0.27.

How did the z-score turn out when `CC1SC(c2ccc(Cl)cc2Cl)NC1=O` (centres undefined) was run?
The z-score was -0.0303.

Which z-score does the source give for `COc1ccc(-c2noc(CCC(=O)Nc3cc(Cl)c(OC)cc3OC)n2)cc1` here?
The z-score was -0.134.

Which z-score does the source give for `CCC1CCCCN1C(=O)c1noc(C(C)C)c1[N+](=O)[O-]` (centres undefined) here?
Its z-score is -0.317.

Which z-score does the source give for `COC(=O)Cn1cc(/C=N/NC(=O)c2ccc(C#N)cc2F)c2ccccc21` here?
Its z-score is 0.0803.

For `Cc1ccccc1C(=O)NC(=S)Nc1ccc(S(=O)(=O)N(C)c2ccccc2)cc1`, which z-score is on record?
Its z-score is 1.07.

With `COc1ccc(Br)cc1C(=O)NC(=S)Nc1cc(-c2nc3ccccc3[nH]2)ccc1C` as the compound, how does the z-score read?
The z-score was -0.25.

With `COCCCNC(=O)c1oc2ccc(S(=O)(=O)N(C)C3CCCCC3)cc2c1C` as the compound, how does the z-score read?
The z-score was -1.01.

For `CCCc1cc(C(N)=O)c(NC(=O)c2cc(C)on2)s1`, which z-score is on record?
The z-score was -0.444.

How did the z-score turn out when `CCN(CC)c1nc(N)c2c(N)n(-c3ccccc3C)c(=S)c(C#N)c2c1C#N` was run?
Its z-score is 0.161.

Which z-score does the source give for `O=C(CSCC(=O)N1CCCCC1)Nc1nc(-c2ccc(Cl)s2)cs1` here?
The z-score was 2.68.

`COc1ccc(C(=O)/C=C/c2ccc(OC)c(O)c2)c(F)c1` was tested. Which z-score did it give?
Its z-score is -0.337.
